Values joined by “and” are separate entries in the source; they are usually repeats but may differ in a detail not shown here. Identical values can stand only once. Whole data set: some 5,300 compounds, median “PER2::LUC luminescence relative to vehicle control” near 0.96, cut for the highest 2% near 1.3. This is one part of the list.
Tested on: mPer2Luc MEF
Experiment: PER2::LUC luminescence relative to vehicle control (fold of vehicle); higher = higher PER2::LUC reporter signal
Details: 10 µM
Outline: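 The value is PER2::LUC luminescence expressed as fold of vehicle control. Mouse embryonic fibroblasts carrying the mPer2Luc reporter were seeded at ~3000 cells per well in 384-well plates and grown in DMEM with 10% FBS at 37 °C and 5% CO2. Compounds from commercial libraries were added at 10 μM 48 h after seeding, and luminescence was read with the ONE-Glo luciferase assay system 24 h and 30 h after treatment, followed by an alamarBlue viability assay.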

SMILES | PER2::LUC luminescence (time after treatment 24 h) | PER2::LUC luminescence (time after treatment 30 h)
O=C1CCc2ccc(OCCCCN3CCN(c4cccc(Cl)c4Cl)CC3)cc2N1 | 0.834 | 0.887
COc1c2ccoc2cc2oc(=O)ccc12 | 0.819 | 0.811
CCCCCCCCCCCC1=C(O)C(=O)C=C(O)C1=O | 1.01 | 0.88
NCCCC(N)(C(=O)O)C(F)F (configuration not stated) | 1.07 | 0.949
CCC(Sc1nnc2c(n1)[nH]c1ccccc12)C(=O)N1c2ccccc2Sc2ccccc21 (configuration not stated) | 0.975 | 1.07
CC1(C)CC[C@]2(C(=O)O)CC[C@]3(C)C(=CCC4[C@@]5(C)CC[C@@H](O)C(C)(C)C5CC[C@]43C)C2C1 (some centres not stated) | 0.996 | 0.939
C=C[C@@H]1C[C@]1(NC(=O)[C@@H]1C[C@@H]2CN1C(=O)[C@H](C(C)(C)C)NC(=O)O[C@@H]1C[C@H]1CCCCCc1nc3ccc(OC)cc3nc1O2)C(=O)NS(=O)(=O)C1CC1 | 1.23 | 1.33
CCN(CC)CCOc1ccc(C(=C(Cl)c2ccccc2)c2ccccc2)cc1 | 0.934 and 0.704 | 1.73 and 0.773
CC(C)=CCC/C(C)=C/CC/C(C)=C/CSc1ccccc1C(=O)O | 1.13 | 1.1
COc1ccc2c(c1)CC[C@@H]1[C@@H]2CC[C@]2(C)[C@@H](NCCCCCCN3C(=O)CCC3=O)CC[C@@H]12 | 0.769 | 0.668
CCCCCOC(=O)Nc1nc(=O)n([C@@H]2O[C@H](C)[C@@H](O)[C@H]2O)cc1F | 1.06 | 0.877
CCCCNc1ccc(C(=O)OCCN(C)C)cc1 | 1.04 | 0.965
COc1ccc(NC(=O)c2ccc(-c3ccc(-c4noc(C)n4)cc3C)cc2)cc1N1CCN(C)CC1 | 0.555 | 0.523
CN1CCOC(c2ccccc2)c2ccccc2C1 (configuration not stated) | 1.02 and 0.878 | 1.02 and 0.749
N=C(N)NCCCCN | 0.91 | 0.801
COc1ccc(N2CCOCC2)c2sc(NC(=O)N3CCC(C)(O)CC3)nc12 | 0.925 | 0.991
C[C@H](CSC(=O)c1ccccc1)C(=O)N1C[C@@H](Sc2ccccc2)C[C@H]1C(=O)O | 1.03 | 0.959
CCc1cc(-c2n[nH]c(C)c2-c2ccc3c(c2)OCCO3)c(O)cc1O | 1.11 | 1.12
COc1cc2ncnc(Oc3ccc(CC(=O)Nc4cnn(C(C)C)c4)cc3)c2cc1OC | 0.767 | 0.639
CC(C)NC[C@H](O)COc1cccc2[nH]ccc12 | 1.06 and 0.903 | 0.838 and 0.849
CCc1ccc2c(O)c3c(cc2c1C(=O)OC)C(=O)c1c(O)ccc(O)c1C3=O | 0.886 | 0.948
O=C(Cc1ccccc1)Nc1nc2ccc(Cl)cc2c2nc(-c3ccco3)nn12 | 0.998 | 0.984

SMILES | PER2::LUC luminescence (time after treatment 24 h) | PER2::LUC luminescence (time after treatment 30 h)
O=C(O)COCCN1CCN([C@H](c2ccccc2)c2ccc(Cl)cc2)CC1 | 0.971 and 0.778 | 0.903 and 0.84
Cc1cc(-c2ncc(CC(=O)Nc3ccc(-c4cnccn4)cn3)cc2C)ccn1 | 0.781 | 0.903
Cc1cnc(C(=O)NCCc2ccc(S(=O)(=O)NC(=O)NC3CCCCC3)cc2)cn1 | 0.906 | 1.14
COc1ccc2c(O[C@@H]3C[C@H]4C(=O)N[C@]5(C(=O)NS(=O)(=O)C6CC6)C[C@H]5/C=C\CCCCN(C)C(=O)[C@@H]4C3)cc(-c3nc(C(C)C)cs3)nc2c1C | 1.04 | 1.02
FC(F)(F)c1ccc(CNc2ccc(Cc3c[nH]c4ncc(Cl)cc34)cn2)cc1 | 0.83 | 0.83
O=C1[C@H](CC[C@H](O)c2ccc(F)cc2)[C@@H](c2ccc(O)cc2)N1c1ccc(F)cc1 | 0.797 | 0.929
CC(=O)O[C@H]1C[C@@H](OC(C)=O)C(C)(C)[C@@H]2C[C@@H](OC(C)=O)[C@@]3(C)C4=CC(=O)O[C@@H](c5ccoc5)[C@]4(C)CC[C@@H]3[C@@]12C | 0.879 | 0.86
c1cc(-c2cnn3cc(-c4ccc(OCCN5CCCCC5)cc4)cnc23)ccn1 | 0.506 and 0.484 | 0.616 and 0.593
O=S(=O)(O)c1cc(I)c(O)c2ncccc12 | 0.945 | 1.18
N#Cc1nccc(Oc2cccc(-c3ccc(CN)cc3)c2)n1 | 0.994 | 1.14
COc1ccccc1N1CCN(CCCCNC(=O)c2ccc3ccccc3c2)CC1 | 0.883 | 0.811
Nc1ncnc2c1C(=O)N(c1ccc([C@H]3CC[C@H](CC(=O)O)CC3)cc1)CCO2 | 1.07 | 0.74
CCC1NC(=O)c2cc(S(N)(=O)=O)c(Cl)cc2N1 (configuration not stated) | 0.686 | 0.906
CC(O)(P(=O)(O)O)P(=O)(O)O | 0.929 and 0.971 and 0.927 | 1.04 and 0.95 and 0.987
CC(COc1ccccc1Cc1ccccc1)N1CCCCC1 (configuration not stated) | 0.794 | 0.87
COC(C)(C)CCCC(C)C/C=C/C(C)=C/C(=O)O (configuration not stated) | 1.1 | 1.13
O=C1NC(=O)[C@@H](c2cn3c4c(cccc24)CCC3)[C@@H]1c1c[nH]c2ccccc12 | 0.376 | 0.404
COc1ccc(CCNC[C@@H](O)c2ccc(O)cc2)cc1OC | 0.86 | 0.91
Cn1c(=O)c2c(ncn2CCO)n(C)c1=O | 1.26 | 1.19
CCCN1CCN(c2ccc(C(=O)NC3(C(=O)NCC#N)CCCCC3)cc2)CC1 | 0.977 | 0.898
C[C@@]1(c2cc(-c3cncnc3)c(F)cc2F)CCSC(N)=N1 | 0.96 | 1.06
COc1ccc2c(c1)O[C@H]1c3ccc(OC)cc3OC[C@@H]21 | 0.983 | 1.08

SMILES | PER2::LUC luminescence (time after treatment 24 h) | PER2::LUC luminescence (time after treatment 30 h)
C[C@H]1N=C(N(C)C)N=C(N)N1 | 1.1 | 1.05
CC(=O)/C(C)=N/O | 1.28 and 0.838 | 1.11 and 0.875
O=[N+]([O-])c1cc2nc(O)c(O)nc2cc1[N+](=O)[O-] | 0.887 | 1.04
CC(C)NCC(O)c1cc(O)cc(O)c1 (configuration not stated) | 1.1 and 1.04 and 1.21 | 0.935 and 0.799 and 0.968
CC(C)(CO)Cc1cc(C(C)(C)C)c(O)c(C(C)(C)C)c1 | 1.04 | 1.12
O=C(O)CN(CCN(CC(=O)O)CC(=O)O)CCN(CC(=O)O)CC(=O)O | 1.05 and 0.967 | 0.871 and 0.877
C#CCN(C)CCCOc1ccc(Cl)cc1Cl | 1.23 | 1.37
COc1ccc(-c2cc(=O)c3c(OC)c(OC)c(OC)cc3o2)cc1OC | 0.736 | 0.843
CCCn1cnc2c1c(=O)n(CCCCC(C)=O)c(=O)n2C | 0.982 | 0.876
CCCCCCCCCCCCCCSCC(=O)O | 0.984 | 1.03
COc1ccc(-c2cc(=O)c3c(O)cc(OC)cc3o2)cc1 | 1.29 | 1.46
COc1ccc2[nH]c(C(=O)c3ccccc3)cc2c1 | 0.524 | 0.75
O=C(/C=C/C=C/c1ccc2c(c1)OCO2)N1CCCCC1 | 1.5 | 1.42
O=C(O)C(S)=Cc1c[nH]c2ccc(F)cc12 | 1.09 | 1.03
O=c1c2ccccc2nc2n1CCc1c-2[nH]c2ccccc12 | 1.36 | 1.51
OC[C@H]1O[C@@H](n2cnc3c2N=CNC[C@H]3O)C[C@@H]1O | 0.983 | 0.951
CN(C)c1ccccc1CN1CCCN(Cc2ccccc2N(C)C)C1c1ccncc1 | 0.511 | 0.808
CCC(=O)OCC(=O)[C@@]1(OC(=O)CC)[C@@H](C)C[C@H]2[C@@H]3CCC4=CC(=O)C=C[C@]4(C)[C@@]3(Cl)[C@@H](O)C[C@@]21C | 0.628 | 0.903
CCN(CC)Cc1cc(Nc2ccnc3cc(Cl)ccc23)ccc1O | 0.671 and 0.499 | 0.701 and 0.755
COCC(=O)O[C@]1(CCN(C)CCCc2nc3ccccc3[nH]2)CCc2cc(F)ccc2[C@@H]1C(C)C | 0.667 | 0.524
Oc1cc2c(c(Cl)c1O)CCNCC2c1ccccc1 (configuration not stated) | 0.957 | 0.798
O=c1ccc2cccc(O)c2[nH]1 | 1.06 | 0.957

SMILES | PER2::LUC luminescence (time after treatment 24 h) | PER2::LUC luminescence (time after treatment 30 h)
CC(C)=CCC/C(C)=C/CC/C(C)=C/CC/C(C)=C/CO | 1.08 | 1.12
CC(C)CCCC(C)C1CCC2C3CCC4CC(O)CCC4(C)C3CCC12C (configuration not stated) | 0.978 | 0.951
COc1ccccc1N1CCN(CCCNc2cc(=O)n(C)c(=O)n2C)CC1 | 0.98 and 0.844 | 0.907 and 0.934
O=C(Nc1cccc(Nc2ncc(Br)c(NCCc3cnc[nH]3)n2)c1)N1CCCC1 | 0.55 | 0.463
O=C(CCCN1CCC(O)(c2cccc(C(F)(F)F)c2)CC1)c1ccc(F)cc1 | 0.841 | 0.846
OC[C@H]1O[C@@](CO)(O[C@H]2O[C@H](CO)[C@@H](O)[C@H](O)[C@H]2O)[C@@H](O[C@H]2O[C@H](CO)[C@@H](O)[C@H](O)[C@H]2O)[C@@H]1O | 1.14 | 1.02
O=C(O)[C@H]1CN[C@H](C(=O)O)C1 | 1.01 | 1.04
CC(C)S(=O)(=O)NC[C@H](C)c1ccc(-c2ccc(CCNS(C)(=O)=O)cc2)cc1 | 0.962 | 0.902
COc1nc(N)nc2c1ncn2[C@@H]1O[C@H](CO)[C@@H](O)[C@@H]1O | 1.11 | 0.989
CC1(C)C[C@@H]2C(=O)CC[C@H]3O[C@]3(C)CC[C@H]21 | 0.973 | 0.909
O=C1CCC(N2C(=O)c3ccccc3C2=O)C(=O)N1 (configuration not stated) | 1.16 | 0.867
O=C1[C@@H]2[C@H]3CC[C@H](C3)[C@@H]2C(=O)N1CCCCN1CCN(c2ncccn2)CC1 | 0.991 | 0.996
c1cn2cc(-c3ccc4cn[nH]c4c3)nc(Nc3ccc(N4CCOCC4)cc3)c2n1 | 0.243 | 0.3
C[C@H](CCC(=O)NCCS(=O)(=O)O)[C@H]1CC[C@H]2[C@@H]3[C@@H](O)C[C@@H]4C[C@H](O)CC[C@]4(C)[C@H]3CC[C@]12C | 1.04 | 0.996
CCOc1ccc(NC(=O)CC(C)O)cc1 (configuration not stated) | 1.09 | 0.961
C=CCn1c(=O)c2cnc(Nc3ccc(N4CCN(C)CC4)cc3)nc2n1-c1cccc(C(C)(C)O)n1 | 0.57 | 0.631
COc1c(O)c2c(=O)cc(OC)c3c4c(OC)cc(=O)c5c(O)c(OC)c6c(c(c1CC(C)=C6C(C)=O)c23)c54 | 0.779 | 0.948
Clc1ccc(C(Cn2ccnc2)OCc2csc3c(Cl)cccc23)c(Cl)c1 (configuration not stated) | 1.13 | 1.12
CC(=O)OCC1=C(C(=O)O)N2C(=O)[C@@H](NC(=O)Cc3cccs3)[C@H]2SC1 | 1.14 | 1.13
CCCCCCCCCCCCCCCCCC(=O)NCC(COP(=O)([O-])OCC[N+](C)(C)C)OCC (racemic) | 0.966 | 1.03
